These results are taken from PubChem BioAssay AID1346428 (National Center for Advancing Translational Sciences (NCATS), 2018).

Screen size: about 48,000 compounds; about 1,200 (2.5%) were called active. Roughly 2% stayed inconclusive and do not appear here.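 How the source made its calls: active means activation of at least 60% and not above a set upper limit (about 1 call in 100 departs from these limits); inconclusive means activation of 40% to 60%, or above that upper limit; inactive means activation under 40%.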 Some of the results follow.

This assay concerns the target Probable G-protein coupled receptor 32 (Homo sapiens) (UniProt O75388). The assay can be described thus: qHTS for Agonists of Human Resolvin D1 Receptor DRV1. As to conditions: CHO-K1 GPR32 beta-arrestin PathHunter luminescence, 90 min; at 76.9 µM; active compounds read high; zero percent set by DMSO-only wells. The procedure, abridged: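 Using DMSO wells as EC0, agonist-induced signal was taken as chemiluminescence from beta-Gal reconstituted upon beta-arrestin recruitment to GPR32 in CHO-K1 cells after 90 min compound treatment.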
UniProt O75388, sequence (O75388 whole entry, looked up): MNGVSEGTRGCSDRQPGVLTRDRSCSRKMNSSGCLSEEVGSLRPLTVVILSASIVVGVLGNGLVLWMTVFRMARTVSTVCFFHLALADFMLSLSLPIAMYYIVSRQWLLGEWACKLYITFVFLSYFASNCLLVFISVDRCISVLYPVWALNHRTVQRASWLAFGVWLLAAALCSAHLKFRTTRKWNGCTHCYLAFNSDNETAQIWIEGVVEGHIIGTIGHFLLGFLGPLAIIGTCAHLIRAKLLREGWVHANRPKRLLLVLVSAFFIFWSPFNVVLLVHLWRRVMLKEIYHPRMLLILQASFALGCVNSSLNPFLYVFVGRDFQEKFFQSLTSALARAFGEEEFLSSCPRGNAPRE
(In general: Quantitative high-throughput screening tests each substance at several concentrations.)
As for `Cc1ccc(NC(=O)Cn2c(=O)nc(-c3ccccc3)c3ccccc32)cc1`, the activation was inactive: -7.59%.

On to `Cn1c(=O)[nH]c(=O)c2c1nc(CN1CCN(c3ccccc3)CC1)n2Cc1c(F)cccc1Cl`, for which the activation was inactive: -10.7%.

For the compound `Cc1cccc(NC(=O)c2ccc3[nH]c(C)cc(=O)c3c2)c1`, the activation was inactive: 3.92%. Consider `COc1ccc(-c2cc(C)no2)cc1S(=O)(=O)N1CCCC(C)C1` (stereo not drawn), for which the activation was inactive: -12.8%. `CC(C)CCNC(=O)c1cc(-c2ccc(Br)s2)nc2ccccc12`: the activation was inactive: 20.7%. Regarding `CC(C)(C)c1ccc(C(=O)Nc2ccc(NC(=O)c3ccc(Cl)c(Cl)c3)cc2)cc1`, the activation is inactive: -2.65%. `CCC(=O)N1CCc2cc(S(=O)(=O)NC(Cc3ccccc3)C(=O)NCc3ccccc3OC)ccc21` (stereo not drawn): the activation was inactive: -11.8%. Next, `CS(=O)(=O)Nc1ccc(-c2nc3ccccc3s2)cc1`: active: 100%; `O=C(CSc1ncc2c(n1)-c1cc(Cl)ccc1N(Cc1ccccc1)S2(=O)=O)NCCc1ccccc1`: inactive: 6.23%; `CCOC(=O)COc1cc(C)c(Cl)cc1C(=O)c1ccn2nc(-c3ccc(OC)cc3)cc2n1`: inactive: -27.1%.

Consider `COc1ccc(NC(=O)c2cccn2-c2nnc(N3CCCCC3)s2)c(OC)c1`, for which the activation is inactive: -16.7%.

With `CCc1nn(CC(=O)NCCc2ccc(OC)c(OC)c2)c(=O)c2cc3occc3n12`, the activation is inactive: -3.24%. `CN(CCCN1c2ccccc2CCc2ccccc21)CC(=O)c1ccc(Cl)cc1`: the activation was active: 109%. `CCOc1ccc(NC(=O)C2=C(C)C(=O)OC23CCC(C)CC3)cc1` (stereo not drawn): the activation is inactive: -26.2%. Turning to `COc1ccccc1NC(=O)c1ccc(-c2nc(COc3ccc(C)cc3)c(C)o2)cc1`, the activation was inactive: -16.8%. On to `Cc1ccc(NC(=O)Nc2c(C)n(C)n(-c3ccccc3)c2=O)c(Cl)c1`, for which the activation is inactive: -7.58%. To `CCOC(=O)c1ccc(NC(=O)CSc2nc(-c3ccc(F)cc3)cc(C(F)(F)F)c2C#N)cc1` belongs inactive: -5.32%; to `CCOC(=O)c1c(C)[nH]c(C)c1S(=O)(=O)N(C)CC(=O)NCc1ccc(C)cc1`, inactive: 22.9%; to `CCOc1cccc(CNC(=O)c2ccc(N3CCCC3)c(NC(=O)Nc3ccccc3CC)c2)c1`, inactive: -16.7%. Consider `CC(C)c1ccc(NC(=O)Cc2ccc(NC(=O)N3CCCCc4ccccc43)cc2)cc1`, for which the activation was inactive: -15.9%.

Take `COc1ccc(C2CC(=O)c3cc(-c4nc(-c5ccc(C)cc5)cs4)c(=O)[nH]c3C2)cc1` (stereo not drawn): the activation was inactive: -34.4%. Regarding `CCC1CN(C(=O)NCc2ccc(F)cc2)c2cc(Cl)ccc2O1` (stereo not drawn), the activation is inactive: -9.76%. Consider `CCCCOc1ccc(CNC(=O)CN2C(=O)CCn3nc(-c4cn(C)c5ccccc45)cc32)cc1`, for which the activation is inactive: 39%. Regarding `COc1ccc(NC(=O)C2CCCN(S(=O)(=O)c3c(C)[nH]c(=O)[nH]c3=O)C2)cc1` (stereo not drawn), the activation was inactive: -13.1%. As for `CSC(=N)N`, the activation is inactive: -7.71%. `COc1ccc(S(=O)(=O)NCCc2csc(-c3cccc(F)c3)n2)cc1OC`: the activation was inactive: 18.7%.

As to `COc1cc(OC)c(NC(=O)CC(C)S(=O)(=O)c2ccc3c(c2)NC(=O)CO3)cc1Cl` (stereo not drawn), the activation is active: 73.4%.

On to `CCOc1ccc(/C=C/C(=O)Nc2sc3c(c2C(=O)OC)CCCC3)cc1`, for which the activation was inactive: -2.06%. In the case of `Nc1nc(Nc2cccc(Cl)c2)sc1C(=O)c1ccc(F)cc1`, the activation is inactive: -20.2%. Next, `COc1ccc(-c2nn(-c3ccc(C)c(Cl)c3)c3c2cnc2cc(OC)c(OC)cc23)cc1`: inactive: -11.5%; `Cc1ccc(S(=O)(=O)CC(=O)Nc2nc3c(C)cccc3s2)cc1`: inactive: 1.09%; `Cc1ccc(-c2c3c(=O)n(C)c(=O)n(C)c3c3cnc4ccccc4n23)cc1`: inactive: -11%. Consider `CSc1ccc(/C=C/c2nc3ccccc3n2S(=O)(=O)c2ccc(Br)cc2)cc1`, for which the activation was inactive: -11.2%. As to `Cc1ccc(N2CCN(Cc3nnc(-c4ccccc4F)o3)CC2)c(C)c1`, the activation was inactive: -6.77%. With `CC(=O)N1CCc2cc(Br)cc(S(=O)(=O)NCCc3cccc(C)c3)c21`, the activation was inactive: -2.8%.

As to `CCOC(=O)c1c(C)[nH]c(C)c1S(=O)(=O)N1CCCC(C(=O)Nc2cccc(CC)c2)C1` (stereo not drawn), the activation is inactive: 11.7%. For `COc1cccc(NC(=O)/C(C#N)=C/c2c(C)n(Cc3ccccc3)c3ccccc23)c1`, the activation was inactive: -22%. In the case of `CCOc1ccc(NC(=O)CCc2c(C)nc3nc(-c4cc(OC)cc(OC)c4)nn3c2C)cc1`, the activation is inactive: -3.29%. As to `COc1ccccc1Nc1nc(N)nc(N)c1S(=O)(=O)c1ccccc1`, the activation was inactive: 4.23%.

For the compound `COc1ccc(-n2nnc(-c3nsc(NC(=O)c4cccc(C)c4)n3)c2C)cc1OC`, the activation is inactive: 21.3%. Turning to `COc1ccc(-c2[nH]c3c(c2-c2c(-n4cccc4)n(C)c(=O)[nH]c2=O)c(=O)[nH]c(=O)n3C)cc1F`, the activation is inactive: -4.39%. On to `Fc1ccc(C(NCCc2ccc(Cl)cc2)c2nnc(-c3ccccc3Cl)o2)cc1` (stereo not drawn), for which the activation is inactive: -36.6%.

Take `O=C(Nc1ccc(Cl)c(C(F)(F)F)c1)c1nc2ccccc2nc1N1CCCCC1`: the activation was inactive: -0.921%.

For the compound `CSc1ncc(Cl)c(C(=O)N(C)c2ccccc2)n1`, the activation was inactive: 2.07%.

Regarding `CCN1CCN(c2ncc3c(n2)CCN(Cc2cccc(F)c2F)C3)CC1`, the activation is inactive: -24.3%.

Take `COc1cccc(NC(=O)Cn2nnc(C(=O)NCc3ccc4c(c3)OCO4)c2N)c1`: the activation is inactive: -0.0063%. Turning to `CCOCCCNC(=O)c1cn(CC(C)C)c(=O)c2c1c1ccccc1n2C`, the activation was inactive: 8.52%.

On to `Cn1c(SCC(=O)Nc2nc3ccccc3s2)ncc(C(=O)Nc2ccc(Cl)cc2)c1=O`, for which the activation was inactive: 5.21%. Regarding `COC(=O)c1ccccc1NC(=O)c1nn(C)c2c1COc1ccccc1-2`, the activation is inactive: -13.6%. As to `Cc1cccn2c(=O)c3cc(C#N)c(=O)n(-c4nnc(SCc5ccc(F)cc5)s4)c3nc12`, the activation is inactive: 9.5%. `COc1ccccc1Nc1ncc2c(n1)CCN(Cc1cc(F)cc(F)c1)C2`: the activation was inactive: 21.4%. Turning to `CN(C)c1cc(NC(=O)CNC(C)(C)C)c(O)c2c1C[C@@H]1C[C@H]3[C@H](N(C)C)C(=O)C(C(N)=O)=C(O)[C@@]3(O)C(=O)C1=C2O`, the activation is inactive: 0.175%. For the compound `Cc1cc(C)c(NC(=O)CSc2nc(=O)n(Cc3cccnc3)c3c2CCC3)c(C)c1`, the activation is inactive: -8.55%.
